Experimental data as given in the supplement of paper PMC6531468.
The other results are listed elsewhere or left out. Read counts after selection give these values, which scatter widely. Each score is taken over the longer molecules that contain the sequence shown.

Test system: IMP3 RRM1-2
Assay: 6-mer SELEX enrichment z-score vs GST control; IMP3 is the RNA-binding protein IGF2BP3; higher = more enriched by binding
Conditions: construct: RRM1-2 (1-163); SELEX round: R2
Description: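 SELEX-seq with GST-tagged IMP3 RRM1-2 (Met1-Asn163) and an N40 RNA pool, round 2. 6-mer enrichment z-score normalised to GST SELEX. RNA written as DNA (T = U).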

Sequence of IMP3 RRM1-2 (chain, as listed by the source): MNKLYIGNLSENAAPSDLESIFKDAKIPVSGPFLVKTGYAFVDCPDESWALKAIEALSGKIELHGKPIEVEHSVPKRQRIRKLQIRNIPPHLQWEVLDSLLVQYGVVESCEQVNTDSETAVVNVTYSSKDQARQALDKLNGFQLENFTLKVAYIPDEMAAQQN

| Sequence | 6-mer SELEX enrichment z-score |
| --- | --- |
| TTAAGT | 0.11 |
| CTCTCG | 0.47 |
| TTAGCG | 0.201 |
| AAATTT | -0.615 |
| TAAATC | -0.079 |
| CGCTAC | 0.049 |
| GCGACG | -0.406 |
| ATCTCC | 0.196 |
| CATTAA | 0.913 |
| GCTAAG | -0.137 |
| TTTGTC | 0.402 |
| TTTTAT | 0.545 |
| TCACCC | -0.2 |
| ACCCAC | -0.459 |
| AATCGA | -0.918 |
| ATTATG | 0.028 |
| GTTGAA | -0.565 |
| GATCCG | -0.467 |
| TATGTT | 0.279 |
| CAAATA | -0.426 |

| Sequence | 6-mer SELEX enrichment z-score |
| --- | --- |
| ATGCTA | -0.171 |
| GACCTC | -0.45 |
| GCCGCG | -0.258 |
| CCGAGC | -0.277 |
| TTACAA | 0.402 |
| TAGAGT | 0.019 |
| GAGAGA | -0.913 |
| TTTAAG | -0.136 |
| GCCCCG | -0.73 |
| TCAACC | 0.804 |
| GCACTC | 0.584 |
| CTCCTA | 0.017 |
| CATGTA | 0.395 |
| CTGCTC | 0.229 |
| TCAACG | 0.13 |
| GAATTC | -0.135 |
| CGGTTC | 0.311 |
| CACAAA | 1.74 |
| AATGAA | -1.94 |
| TCGTAA | -0.303 |
